# Sequences with one replicate were seen in a single cluster, so their values are uncertain.
# Test system: ATP
# Experiment: switch fluorescence ratio, 500 uM ATP over buffer (Cy3 cluster intensity, sum of 5 cycles each) (fold (ratio)); higher = stronger signal-on switching upon ATP binding; sequences stand for … in TCGTCGGCAGCGTCAGATGTGTATAAGAGACAGTTTTTTTTTTTTTTTTTTTTTTTTT…TC
# Conditions: aptamer strand: ATP DNA aptamer (quencher-CACCTGGGGGAGTATTGCGGAGGAAGG + anchor), 100 nM annealed; ATP concentration: 500 uM; one replicate
# Procedure, shortened: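 Switching-strand clusters labelled with Cy3 on a modified Illumina MiSeq flow-cell were annealed to 100 nM quencher-labelled ATP aptamer, imaged in selection buffer, and re-imaged after 15 min with 500 uM ATP at 22 °C. This was done over five cycles with NaOH stripping and re-annealing in between. The fluorescence ratio is summed target-cycle over summed buffer-cycle Cy3 intensity per cluster, averaged per switch-domain sequence, excluding clusters outside 100-1000 RFU.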
# 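Note: ATP exposure 15 min at 22 °C before imaging.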
sequence,measurement,value
TGACTGGAGC,switch fluorescence ratio,1.02
TTTACATCGG,switch fluorescence ratio,1
GAGTAAGGTG,switch fluorescence ratio,0.963
TTCGATGCTT,switch fluorescence ratio,2.1
CCCCTTCACC,switch fluorescence ratio,1.08
GGGGGCTACA,switch fluorescence ratio,1
CGTTTGTATG,switch fluorescence ratio,1.02
TCGCCTCGT,switch fluorescence ratio,1.12
CTATCAACTT,switch fluorescence ratio,0.989
AGATCAGGCG,switch fluorescence ratio,1.21
CAGTTACCGC,switch fluorescence ratio,1.12
TAGTTTTAGT,switch fluorescence ratio,1.05
CACAGACGTG,switch fluorescence ratio,1.06
AACATCTTT,switch fluorescence ratio,1.03
CATTCATTCG,switch fluorescence ratio,1.08
ATCATTATAG,switch fluorescence ratio,0.986
TGCTTGGAGT,switch fluorescence ratio,1.04
ACCTTTGGAG,switch fluorescence ratio,1.17
TTTCATGAGC,switch fluorescence ratio,1.01
CGCCGTGCTA,switch fluorescence ratio,0.947
TTCTACCTG,switch fluorescence ratio,1
TAGGGTTAGA,switch fluorescence ratio,1.03
GACAATTAAG,switch fluorescence ratio,0.986
ACGTGGGTGT,switch fluorescence ratio,0.973
TACAGGTACC,switch fluorescence ratio,1.03
GGACTTCTGA,switch fluorescence ratio,0.989
CAGAAGCTGT,switch fluorescence ratio,1.17
GCCGGTAAGA,switch fluorescence ratio,1.01
TAGTAACCCT,switch fluorescence ratio,1.06
GAGCTAACCA,switch fluorescence ratio,0.997
GAGTCATTG,switch fluorescence ratio,1.02
CAAACAACCG,switch fluorescence ratio,1.04
GCGGGACCGT,switch fluorescence ratio,1
TAGCGGACAA,switch fluorescence ratio,1.07
AGATTTTCA,switch fluorescence ratio,1.03
GGAATGTT,switch fluorescence ratio,0.992
ATACCCAACA,switch fluorescence ratio,1.1
CATGATCCCC,switch fluorescence ratio,0.986
GGTGTGCGCG,switch fluorescence ratio,0.995
ACTATGAAGC,switch fluorescence ratio,1.05
ACTAGTTC,switch fluorescence ratio,1.03
TTATATATCT,switch fluorescence ratio,0.985
AGTCTGTATG,switch fluorescence ratio,1
TTTAATAGGT,switch fluorescence ratio,0.991
GTGGGCAGGG,switch fluorescence ratio,1.01
GAGGGAAGTC,switch fluorescence ratio,0.951
AAATTAGATC,switch fluorescence ratio,1.02
AAACCATTGC,switch fluorescence ratio,1.03
TGGTAGTGAA,switch fluorescence ratio,1
GCCTCTCGAT,switch fluorescence ratio,1.02
TTTGAAACCT,switch fluorescence ratio,2.67
GGATTTGGGC,switch fluorescence ratio,1.04
AGAGATTCAA,switch fluorescence ratio,1.12
CCCGGTCACG,switch fluorescence ratio,1.03
TCGTTGTAG,switch fluorescence ratio,0.987
CGTTTAATCC,switch fluorescence ratio,1.05
TGCGCACGAT,switch fluorescence ratio,1.09
TATTGTAACG,switch fluorescence ratio,1.01
ATGTCCAGAA,switch fluorescence ratio,1.04
GACGGAATTT,switch fluorescence ratio,1.06
TGGCAGCTTA,switch fluorescence ratio,1.02
GCCTTCTAGT,switch fluorescence ratio,1.06
AATGGTAGTA,switch fluorescence ratio,0.983
TTCTTCGCTT,switch fluorescence ratio,1.37
CACTGGTTAG,switch fluorescence ratio,1.03
AACGAGGACG,switch fluorescence ratio,0.964
CTCTAAAATG,switch fluorescence ratio,1.04
TGTTGGGGCC,switch fluorescence ratio,1.07
TTCCATGAGC,switch fluorescence ratio,0.979
CTGATCCATT,switch fluorescence ratio,0.999
TTAAGTCGGG,switch fluorescence ratio,0.983
TCACGGTGAT,switch fluorescence ratio,1.05
AGGATTGGTC,switch fluorescence ratio,0.924
CAAGGAGACA,switch fluorescence ratio,1.01
GCATTAAAAG,switch fluorescence ratio,1.05
CGGGCCCT,switch fluorescence ratio,1.03
GAGGCCCAAG,switch fluorescence ratio,1.02
GCGATGGCGA,switch fluorescence ratio,1.03
TTTAAATCAG,switch fluorescence ratio,0.991
CGCCATACAG,switch fluorescence ratio,1.46
GGTAACCATT,switch fluorescence ratio,1.05
AGCGGGGGAA,switch fluorescence ratio,1.07
CTCCATCGTC,switch fluorescence ratio,1.1
GTACCCGTCG,switch fluorescence ratio,1.04
TAGTTTAAAT,switch fluorescence ratio,1.03
CCCAAGTAGT,switch fluorescence ratio,1.04
AATTCACCAG,switch fluorescence ratio,1.09
ATCCACCTAT,switch fluorescence ratio,1.09
ATGCGAGTAG,switch fluorescence ratio,1
GTATTATGAT,switch fluorescence ratio,0.991
TTTTGTCT,switch fluorescence ratio,0.982
CGTTTTATTT,switch fluorescence ratio,0.992
CCACTTAGCG,switch fluorescence ratio,1.04
CAGCCCTTAT,switch fluorescence ratio,1.04
ATATTCATGT,switch fluorescence ratio,0.976
ATCGCCGAGA,switch fluorescence ratio,1.03
TAACGATTCT,switch fluorescence ratio,1
ACTAAGGGCC,switch fluorescence ratio,1.02
CGACATGCGG,switch fluorescence ratio,1.02
AGCAGTGCGC,switch fluorescence ratio,1.07
AATTTAATG,switch fluorescence ratio,0.988
ATTATCCTTA,switch fluorescence ratio,0.987
AGGGCTAGG,switch fluorescence ratio,1.01
TGTCTCATTC,switch fluorescence ratio,0.983
AGCAGATATA,switch fluorescence ratio,1
ACATTGGATC,switch fluorescence ratio,1.01
AATGGGTAGC,switch fluorescence ratio,1.03
AGACTAAATA,switch fluorescence ratio,0.954
CGGAAGGTAC,switch fluorescence ratio,1.21
TTATCTTTTG,switch fluorescence ratio,0.965
GTGATATCAC,switch fluorescence ratio,1.01
AAGAAGCGG,switch fluorescence ratio,1.05
TGAAAAACTT,switch fluorescence ratio,1.02
GGGGTTCCCT,switch fluorescence ratio,1.05
GAGTGTTCGT,switch fluorescence ratio,0.983
CGGCAAAGTG,switch fluorescence ratio,1.07
TATGTTGTGC,switch fluorescence ratio,1
ACATTCCATC,switch fluorescence ratio,1.12
CCGGGGCAGA,switch fluorescence ratio,1.28
GGCATCATCT,switch fluorescence ratio,0.964
TCGTCGATGC,switch fluorescence ratio,1.23
GACCTTAGTA,switch fluorescence ratio,0.974
TTAGCGCGCA,switch fluorescence ratio,1.04
AGATGGGATG,switch fluorescence ratio,0.991
CCTTATTACT,switch fluorescence ratio,1.05
GAGTCGAGTC,switch fluorescence ratio,1
GGTACCCCGG,switch fluorescence ratio,1.07
CCTAAATGGA,switch fluorescence ratio,0.996
TACTGTGTGC,switch fluorescence ratio,0.975
CAAGAACGCT,switch fluorescence ratio,1
TAGTGATAGC,switch fluorescence ratio,1
GAGAGCAGAG,switch fluorescence ratio,1.05
ATTTTGTTAC,switch fluorescence ratio,1.03
TTACCAATTA,switch fluorescence ratio,1.03
GGGCGACAG,switch fluorescence ratio,0.99
CCTGGTACGA,switch fluorescence ratio,1.12
TGATCAGAGG,switch fluorescence ratio,1.02
GACCCGAAAC,switch fluorescence ratio,1.27
ATTCGAGACA,switch fluorescence ratio,0.999
ACGCTATGCA,switch fluorescence ratio,1.11
TTATGATGA,switch fluorescence ratio,0.969
CAGTATTTCG,switch fluorescence ratio,0.983
ACGCAGCTTT,switch fluorescence ratio,1.89
TGAGCACCAC,switch fluorescence ratio,1.03
GGCACGGACA,switch fluorescence ratio,1.21
CCTAATCGTC,switch fluorescence ratio,1.06
TAGCGCGTTA,switch fluorescence ratio,1.02
AATTGAGCTA,switch fluorescence ratio,1.03
CCTAGCGAAT,switch fluorescence ratio,1.7
ACATGGCGAG,switch fluorescence ratio,0.961
AGGTACAACG,switch fluorescence ratio,1.02
CCTCGTAGGA,switch fluorescence ratio,1.03
GTTTGTTTTG,switch fluorescence ratio,0.972
ATTTTTATCT,switch fluorescence ratio,0.957
TCCGCTTT,switch fluorescence ratio,1.99
TAGCCCGGAA,switch fluorescence ratio,1.2
TGTCTTCGTT,switch fluorescence ratio,0.958
GGTACGCAT,switch fluorescence ratio,1.38
